T1: RBFOX1 RRM RbFoxmut (Fox-RRM*) (Homo sapiens, UniProt Q9NWB1 109-208, R118D;E147R;N151S;E152T)
T1 sequence: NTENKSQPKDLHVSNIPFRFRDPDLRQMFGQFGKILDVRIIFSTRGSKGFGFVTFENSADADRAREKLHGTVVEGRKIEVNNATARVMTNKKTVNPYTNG

B1: AUAAGCC (DNA:RNA)
RNA: GGGAGACCGGAAUUCAGAUUGUCCAUAAGCCUUAAAUCCCGUCGUAGCCACCA
DNA 1: CAATCTGAATTCCGGTCTCCC
DNA 2: TGGTGGCTACGACGGGATT
B2: UUAUCUG (DNA:RNA)
RNA: B1 RNA with A25U, A28U, G29C, C30U, C31G
DNA 1: CAATCTGAATTCCGGTCTCCC
DNA 2: TGGTGGCTACGACGGGATT
B3: GUGGGCA (DNA:RNA)
RNA: B1 RNA with A25G, A27G, A28G, C31A
DNA 1: CAATCTGAATTCCGGTCTCCC
DNA 2: TGGTGGCTACGACGGGATT
B4: UCCAAUG (DNA:RNA)
RNA: B1 RNA with A25U, U26C, A27C, G29A, C30U, C31G
DNA 1: CAATCTGAATTCCGGTCTCCC
DNA 2: TGGTGGCTACGACGGGATT
B5: CCGAUCC (DNA:RNA)
RNA: B1 RNA with A25C, U26C, A27G, G29U
DNA 1: CAATCTGAATTCCGGTCTCCC
DNA 2: TGGTGGCTACGACGGGATT
B6: CGAGCGU (DNA:RNA)
RNA: B1 RNA with A25C, U26G, A28G, G29C, C30G, C31U
DNA 1: CAATCTGAATTCCGGTCTCCC
DNA 2: TGGTGGCTACGACGGGATT
B7: UUUCUCC (DNA:RNA)
RNA: B1 RNA with A25U, A27U, A28C, G29U
DNA 1: CAATCTGAATTCCGGTCTCCC
DNA 2: TGGTGGCTACGACGGGATT
B8: CUGGACC (DNA:RNA)
RNA: B1 RNA with A25C, A27G, A28G, G29A
DNA 1: CAATCTGAATTCCGGTCTCCC
DNA 2: TGGTGGCTACGACGGGATT
B9: AGCGAGG (DNA:RNA)
RNA: B1 RNA with U26G, A27C, A28G, G29A, C30G, C31G
DNA 1: CAATCTGAATTCCGGTCTCCC
DNA 2: TGGTGGCTACGACGGGATT
B10: UCCAGGC (DNA:RNA)
RNA: B1 RNA with A25U, U26C, A27C, C30G
DNA 1: CAATCTGAATTCCGGTCTCCC
DNA 2: TGGTGGCTACGACGGGATT
B11: GGAAGCU (DNA:RNA)
RNA: B1 RNA with A25G, U26G, C31U
DNA 1: CAATCTGAATTCCGGTCTCCC
DNA 2: TGGTGGCTACGACGGGATT
B12: CAGGUUC (DNA:RNA)
RNA: B1 RNA with A25C, U26A, A27G, A28G, G29U, C30U
DNA 1: CAATCTGAATTCCGGTCTCCC
DNA 2: TGGTGGCTACGACGGGATT
B13: AAAGGAA (DNA:RNA)
RNA: B1 RNA with U26A, A28G, C30A, C31A
DNA 1: CAATCTGAATTCCGGTCTCCC
DNA 2: TGGTGGCTACGACGGGATT
B14: GUUGAGC (DNA:RNA)
RNA: B1 RNA with A25G, A27U, A28G, G29A, C30G
DNA 1: CAATCTGAATTCCGGTCTCCC
DNA 2: TGGTGGCTACGACGGGATT
B15: UCUCCGU (DNA:RNA)
RNA: GGGAGACCGGAAUUCAGAUUGUCCUCUCCGUUUAAAUCCCGUCGUAGCCACCA
DNA 1: CAATCTGAATTCCGGTCTCCC
DNA 2: TGGTGGCTACGACGGGATT
B16: UACCGGU (DNA:RNA)
RNA: B15 RNA with C26A, U27C, C29G
DNA 1: CAATCTGAATTCCGGTCTCCC
DNA 2: TGGTGGCTACGACGGGATT
B17: UCUAGAU (DNA:RNA)
RNA: B15 RNA with C28A, C29G, G30A
DNA 1: CAATCTGAATTCCGGTCTCCC
DNA 2: TGGTGGCTACGACGGGATT
B18: AAUUUGA (DNA:RNA)
RNA: B15 RNA with U25A, C26A, C28U, C29U, U31A
DNA 1: CAATCTGAATTCCGGTCTCCC
DNA 2: TGGTGGCTACGACGGGATT
B19: UUGUUCC (DNA:RNA)
RNA: B1 RNA with A25U, A27G, A28U, G29U
DNA 1: CAATCTGAATTCCGGTCTCCC
DNA 2: TGGTGGCTACGACGGGATT
B20: AAAAGGG (DNA:RNA)
RNA: B1 RNA with U26A, C30G, C31G
DNA 1: CAATCTGAATTCCGGTCTCCC
DNA 2: TGGTGGCTACGACGGGATT
B21: UAUACCC (DNA:RNA)
RNA: B1 RNA with A25U, U26A, A27U, G29C
DNA 1: CAATCTGAATTCCGGTCTCCC
DNA 2: TGGTGGCTACGACGGGATT
B22: GAGCUGC (DNA:RNA)
RNA: B15 RNA with U25G, C26A, U27G, C29U, U31C
DNA 1: CAATCTGAATTCCGGTCTCCC
DNA 2: TGGTGGCTACGACGGGATT
B23: CAAAUCA (DNA:RNA)
RNA: B1 RNA with A25C, U26A, G29U, C31A
DNA 1: CAATCTGAATTCCGGTCTCCC
DNA 2: TGGTGGCTACGACGGGATT
B24: GUAGAAU (DNA:RNA)
RNA: B1 RNA with A25G, A28G, G29A, C30A, C31U
DNA 1: CAATCTGAATTCCGGTCTCCC
DNA 2: TGGTGGCTACGACGGGATT
B25: GGCAUGA (DNA:RNA)
RNA: B1 RNA with A25G, U26G, A27C, G29U, C30G, C31A
DNA 1: CAATCTGAATTCCGGTCTCCC
DNA 2: TGGTGGCTACGACGGGATT
B26: GACUGCA (DNA:RNA)
RNA: B1 RNA with A25G, U26A, A27C, A28U, C31A
DNA 1: CAATCTGAATTCCGGTCTCCC
DNA 2: TGGTGGCTACGACGGGATT
B27: CUCCGGU (DNA:RNA)
RNA: B15 RNA with U25C, C26U, U27C, C29G
DNA 1: CAATCTGAATTCCGGTCTCCC
DNA 2: TGGTGGCTACGACGGGATT
B28: CUUAAUC (DNA:RNA)
RNA: B1 RNA with A25C, A27U, G29A, C30U
DNA 1: CAATCTGAATTCCGGTCTCCC
DNA 2: TGGTGGCTACGACGGGATT
B29: CACGGUC (DNA:RNA)
RNA: B1 RNA with A25C, U26A, A27C, A28G, C30U
DNA 1: CAATCTGAATTCCGGTCTCCC
DNA 2: TGGTGGCTACGACGGGATT
B30: AUCAGCU (DNA:RNA)
RNA: B1 RNA with A27C, C31U
DNA 1: CAATCTGAATTCCGGTCTCCC
DNA 2: TGGTGGCTACGACGGGATT
B31: CCAAACC (DNA:RNA)
RNA: B1 RNA with A25C, U26C, G29A
DNA 1: CAATCTGAATTCCGGTCTCCC
DNA 2: TGGTGGCTACGACGGGATT

This passage reports binding signal results from publication PMC9911399, “Two distinct binding modes provide the RNA-binding protein RbFox with extraordinary sequence specificity”.

Where a chain is given by its changes, count along the chain named. This is one part of the list.

The target of this assay is T1, RBFOX1 RRM RbFoxmut (Fox-RRM*). Kind of assay: EMSA; HiTS-Eq, 1 nM pool, 10 min; buffer printed only for the single-RNA assays: 10 mM Tris pH 7.5, 150 mM NaCl, 3.4 mM EDTA, 0.001% NP-40, 30 C. Particulars: tags: His6 N-terminal (pET28a); label: 5' 32P. An outline of the steps:
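These values rest on relative association constants, computed from read-count changes of each RNA species versus the control reaction and normalised to the cognate motif. Reads came from free RNA recovered by 8% native PAGE after purified RbFox RRM (wild type or mutant) at increasing concentrations was equilibrated for 10 min in 50 µL with 1 nM of a 5′-radiolabelled pool with 7 randomized nucleotides and DNA-annealed flanks.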
With B1, the binding signal was 0.1 KA relative to UGCAUGU.
Next, B2: 0.0695 KA relative to UGCAUGU; B3: 0.105 KA relative to UGCAUGU; B4: 0.117 KA relative to UGCAUGU.
To B5 belongs 0.0468 KA relative to UGCAUGU.
Next, B6: 0.117 KA relative to UGCAUGU; B7: 0.0455 KA relative to UGCAUGU.
Turning to B8, the binding signal is 0.082 KA relative to UGCAUGU.
Next, B9: 0.0956 KA relative to UGCAUGU; B10: 0.0951 KA relative to UGCAUGU; B11: 0.055 KA relative to UGCAUGU.
To B12 belongs 0.137 KA relative to UGCAUGU; to B13, 0.0906 KA relative to UGCAUGU; to B14, 0.13 KA relative to UGCAUGU.
To B15 belongs 0.118 KA relative to UGCAUGU; to B16, 0.0607 KA relative to UGCAUGU.
As to B17, the binding signal was 0.0932 KA relative to UGCAUGU.
Next, B18: 0.06 KA relative to UGCAUGU; B19: 0.104 KA relative to UGCAUGU; B20: 0.0588 KA relative to UGCAUGU.
To B21 belongs 0.0554 KA relative to UGCAUGU; to B22, 0.0895 KA relative to UGCAUGU; to B23, 0.0805 KA relative to UGCAUGU.
To B24 belongs 0.108 KA relative to UGCAUGU; to B25, 0.624 KA relative to UGCAUGU; to B26, 0.224 KA relative to UGCAUGU.
Take B27: the binding signal is 0.0877 KA relative to UGCAUGU.
To B28 belongs 0.0604 KA relative to UGCAUGU.
Next, B29: 0.177 KA relative to UGCAUGU; B30: 0.113 KA relative to UGCAUGU; B31: 0.0976 KA relative to UGCAUGU.
